Out of some 110,000 compounds screened, about 230 (0.21%) showed an effect of 50% or more. Some of the results follow.
Biological target: DPAP1 (Plasmodium falciparum, UniProt Q8IIJ9)
Test: primary screen, percent inhibition; read by cleavage of a fluorogenic dipeptide substrate; higher = more effect of the substance
Set-up: species or system P. falciparum D10 trophozoite lysates; single well
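Further: 30 min substrate incubation versus DMSO and 10 µM JCP410 controls.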

Chain of DPAP1 (Q8IIJ9 whole entry, looked up): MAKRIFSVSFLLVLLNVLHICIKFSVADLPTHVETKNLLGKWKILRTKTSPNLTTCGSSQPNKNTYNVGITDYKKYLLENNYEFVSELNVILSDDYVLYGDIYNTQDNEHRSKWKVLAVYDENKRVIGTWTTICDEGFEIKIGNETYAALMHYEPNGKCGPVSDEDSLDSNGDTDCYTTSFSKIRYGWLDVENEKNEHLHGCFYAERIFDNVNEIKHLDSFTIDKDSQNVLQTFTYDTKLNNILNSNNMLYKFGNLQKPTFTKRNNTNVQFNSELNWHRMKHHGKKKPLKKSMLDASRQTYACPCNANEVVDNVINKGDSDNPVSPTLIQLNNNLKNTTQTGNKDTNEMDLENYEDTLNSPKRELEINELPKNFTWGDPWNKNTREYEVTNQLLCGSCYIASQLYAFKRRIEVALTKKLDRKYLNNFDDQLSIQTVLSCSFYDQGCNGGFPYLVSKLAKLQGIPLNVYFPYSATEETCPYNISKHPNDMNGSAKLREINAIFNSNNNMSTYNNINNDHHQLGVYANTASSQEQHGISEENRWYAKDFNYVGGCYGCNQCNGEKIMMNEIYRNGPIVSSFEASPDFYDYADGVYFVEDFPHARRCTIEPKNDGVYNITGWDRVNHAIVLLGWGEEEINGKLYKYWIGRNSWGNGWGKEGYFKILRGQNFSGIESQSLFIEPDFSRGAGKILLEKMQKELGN

SMILES | % Inhibition @ 10 uM
Cc1ccccc1Cn1cc(NC(=O)C2CC2)cn1 | 11%
CCN(c1ccccc1)S(=O)(=O)c1ccc(NC(=O)c2cccs2)cc1 | -0.132%
COc1c(C(=O)NCCSc2ccccn2)ccc2ccccc12 | 2.72%
COCCN1C(=O)/C(=C/c2ccc3c(c2)OCO3)S/C1=N\c1ccccc1 | 4.08%
Cc1ccc(-c2cc(C(=O)NC(C)C)c3ccccc3n2)cc1C | -0.519%
COc1ccc(-c2cn3nc4c(nc3n2)CCCC4)cc1 | 5.35%
CC1CCC(N2CCCn3c2nc2c3c(=O)n(C)c(=O)n2C)CC1 (stereo not shown) | -6.2%
c1ccc(-c2cc(NCc3ccco3)n3cnnc3n2)cc1 | -2.57%
COc1ccc(N(CC(=O)NC2CCCC2)S(=O)(=O)c2ccc(C)cc2)cc1Cl | -0.46%
CCOc1ccc(N(CC(=O)N2CCCCCC2)S(=O)(=O)c2ccc(C)cc2)cc1 | 4.41%
COc1cc(NC(=O)c2ccc(Cn3nc(C)c(Br)c3C)o2)cc(OC)c1OC | 5.59%
Cc1ccc(C(=O)c2ccc(Oc3ccccc3)cc2)cc1C | -11%
O=C1c2ccccc2C(=O)N1CC1c2ccccc2CCN1C(=O)C12CC3CC(CC(C3)C1)C2 (stereo not shown) | -3.41%
CN1C(=O)NC(=O)/C(=C\c2ccc(OCc3ccc(C(=O)O)cc3)c(Br)c2)C1=O | -2.26%
CCN1CCN(C(=O)c2ccc(F)cc2)CC1 | 2.65%
O=C(O)/C=C\C(=O)Nc1ccc(-c2ccccc2)cc1 | 1.23%
O=C(O)c1ccccc1C(=O)Nc1ccc(Br)c(Cl)c1 | -4.35%
CCOc1cc(Br)c(C2C(C#N)=C(N)OC3=C2C(=O)CC(C)(C)C3)cc1OCC (stereo not shown) | -1.07%
CCSc1nnc(NC(=O)c2cnc(SC)nc2-c2ccccc2)s1 | 2.25%
Cc1cccc(NC(=O)CC2S/C(=N/c3ccc(F)cc3)N(C)C2=O)c1 (stereo not shown) | -0.622%
CC(C)(C)CC(=O)NCc1cn2ccsc2n1 | 3.94%
Cc1cc(C)c(-c2[nH]nc3c2C(c2cccc(O)c2)N(CCCO)C3=O)c(O)c1 (stereo not shown) | 3.27%
Cc1ccccc1S(=O)(=O)Cc1ccc(C(=O)NCCCN(C)Cc2ccccc2)o1 | -4.53%
O=C(NCC1CCCCC1)c1nnc(O)c2ccccc12 | 9.78%
CC1(C)CC(NC(=O)c2cccc(F)c2)CC(C)(C)N1 | -1.33%

SMILES | % Inhibition @ 10 uM
CCOc1ccccc1NC(=O)C1CC(=O)N(c2ccc(C)cc2)C1 (stereo not shown) | 8.94%
O=C(NC1CCCCCC1)C1c2ccccc2C(=O)N2CCCCC12 (stereo not shown) | 4.01%
O=C(Nc1ccccc1)NC1CCCCCC1 | -1.22%
COc1cc(Br)c(C(C)NC(=O)c2ccccc2)cc1OC (stereo not shown) | 1.83%
CC(=O)c1ccc(NC(=O)c2sc3nc4c(cc3c2N)CCCC4)cc1 | -0.545%
COc1cc(C2Nc3ccccc3N=C3CC(c4ccccc4)CC(O)=C32)cc(OC)c1O (stereo not shown) | -7.4%
COCc1cc(C2C(C#N)=C(N)OC3=C2C(=O)CCC3)ccc1OC (stereo not shown) | -5.48%
Cc1cccc(CNS(=O)(=O)c2ccc(-c3ccc(O)nn3)s2)c1 | -6.64%
CN(CCc1ccccn1)Cc1ccc2ccccc2c1 | -1.62%
Cc1ccc2occ(CC(=O)Nc3sc4c(c3C(=O)NCC3CCCO3)CCC4)c2c1 (stereo not shown) | -2.4%
COc1ccc(OC)c(NC(=O)Cn2nc(C(F)(F)F)cc2C2CC2)c1 | -3.72%
Oc1cc(-c2ccccc2)nc2nc(CCc3ccccc3)nn12 | 1%
COc1cc2c(C(=O)c3ccc(Br)cc3)c(C)oc2c2ccccc12 | 1.41%
COC(=O)c1ccc(C2NC(=O)c3[nH]nc(-c4cccc(OC)c4)c32)cc1 (stereo not shown) | -3.35%
CCCCCc1ccc(-c2ccc(-c3noc(C4CCC(CCCCC)CC4)n3)cc2)cc1 (stereo not shown) | -6.18%
COc1ccc(C2C(=O)N(CCc3ccccc3)CC(=O)N2CCC2=CCCCC2)cc1 (stereo not shown) | 5.89%
O=C(NC1CCCCC1)c1cccc(S(=O)(=O)N2CCCCC2)c1 | 1.63%
CCSCCC(NC(=O)OCc1ccccc1)C(=O)NCC#N (stereo not shown) | -3.49%
CC(=O)NCCc1nc2ccccc2n1Cc1c(C)c(C)cc(C)c1C | 1.12%
FC(F)(F)c1cc(-c2ccc(Cl)cc2)nc2ccnn12 | -0.318%
N#CCNC(=O)[C@H](CCS(=O)(=O)Cc1ccccc1)NC(=O)c1ccccc1 | 12.3%
O=C(O)C1Cc2c([nH]c3ccccc23)C(c2cc(Br)ccc2O)N1 (stereo not shown) | 13.2%
O=C1NC(=O)/C(=C\c2cccc3ccccc23)S1 | 17.3%
COc1cc(CN2CCN(C(C)C)CC2)cc(OC)c1OC | 5.94%
